# Source: US20250188165A1, “COMBINATIONS WITH AN ANTI HUMAN CD39 ANTIBODY, AN ANTI HUMAN PD-1 ANTIBODY, AND CHEMOTHERAPY IN GASTRIC CANCER” (Trishula Therapeutics Inc, priority 2022, published 2025)
# B1: anti-human CD39 antibody: Antibody with VH SEQ ID NO: 25, VL SEQ ID NO: 29; heavy chain SEQ ID NO: 33, light chain SEQ ID NO: 34 (antibody)
# heavy: QVQLVQSGAEVKKPGASVKVSCKASGYTFKSYEMHWVRQAPGQGLEWMGRINPSVGSTWYAQKFQGRVTMTRDTSTSTVYMELSSLRSEDTAVYYCARGKREGGTEYLRKWGQGTLVTVSSASTKGPSVFPLAPCSRSTSESTAALGCLVKDYFPEPVTVSWNSGALTSGVHTFPAVLQSSGLYSLSSVVTVPSSSLGTKTYTCNVDHKPSNTKVDKRV[human IgG4 Fc with S228P (EU numbers) cut from this listing]
# light: EIVLTQSPGTLSLSPGERATLSCRASQSVASSYLAWYQQKPGQAPRLLIYGASNRHTGIPDRFSGSGSGTDFTLTISRLEPEDFAVYYCQQYHNAITFGGGTKVEIKRTVAAPSVFIFPPSDEQLKSGTASVVCLLNNFYPREAKVQWKVDNALQSGNSQESVTEQDSKDSTYSLSSTLTLSKADYEKHKVYACEVTHQGLSSPVTKSFNRGEC
# Test: Clinical PK of anti-human CD39 antibody in dose escalation
# Format: in vivo
# Settings: 40 mg/kg Q3W
# Protocol: After the completion of the dose escalation portion of the study, the totality of the PK data was used for PK modeling for the RP2D. Based on simulations, it was determined that a loading dose of 40 mg/kg one week prior to Cycle 1, Day 1 dosing of 30 mg/kg Q3W or 20 mg/kg Q2W will provide a minimal functional trough level in greater than 80% of subjects before Cycle 1, Day 1 and in cycles thereafter.
molecule,measurement,value
B1,trough level versus minimal functional level from preclinical human functional assays,achieved a minimal functional trough level
